The list shows a part of the results.
Columns and labels:
Test in all cases: glycan array binding signal (z-score within array); higher = stronger binding
Conditions in all cases: glycan notation: IUPAC condensed, linker removed
[1] = molecular target: Gal3S(b1-4)[Fuc(a1-3)]Glc
Procedure, shortened: (§1)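 Glycan array binding is given as a within-array Z-score, which can be read as non-binding when negative. The arrays, 3228 of them, came from the Consortium for Functional Glycomics database and were retained only where the protein sequence was available. Z-scores were averaged across arrays of the same protein sequence at different concentrations or buffers and across linkers.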

[2] = molecular target: Gal3S(b1-4)[Fuc(a1-3)]Glc6S
Procedure, shortened: as §1

[3] = molecular target: Gal3S4S(b1-4)GlcNAc
Procedure, shortened: as §1

[4] = molecular target: Gal3S6S(b1-4)GlcNAc
Procedure, shortened: as §1

[5] = molecular target: Gal3S6S(b1-4)GlcNAc6S
Procedure, shortened: as §1

[6] = molecular target: Gal4S(b1-4)GlcNAc
Procedure, shortened: as §1

[7] = molecular target: Gal4S6S(b1-4)GlcNAc
Procedure, shortened: as §1

[8] = molecular target: Gal6S(b1-4)Glc
Procedure, shortened: as §1

[9] = molecular target: Gal6S(b1-4)Glc6S
Procedure, shortened: as §1

[10] = molecular target: Gal6S(b1-4)GlcNAc
Procedure, shortened: as §1

[11] = molecular target: Gal6S(b1-4)GlcNAc6S
Procedure, shortened: as §1

[12] = molecular target: GalNAc(a1-3)Gal
Procedure, shortened: as §1

[13] = molecular target: GalNAc(a1-3)GalNAc
Procedure, shortened: as §1

[14] = molecular target: GalNAc(a1-3)GalNAc(a1-3)Gal(a1-4)Gal(b1-4)GlcNAc
Procedure, shortened: as §1

[15] = molecular target: GalNAc(b1-3)Gal
Procedure, shortened: as §1

[16] = molecular target: GalNAc(b1-3)Gal(a1-4)Gal(b1-4)GlcNAc
Procedure, shortened: as §1

[17] = molecular target: GalNAc(b1-3)Gal(a1-4)Gal(b1-4)GlcNAc(b1-3)Gal(b1-4)Glc
Procedure, shortened: as §1

[18] = molecular target: GalNAc(b1-3)Gal(a1-6)Gal(b1-4)Glc
Procedure, shortened: as §1

[19] = molecular target: GalNAc(b1-3)GalNAc
Procedure, shortened: as §1

[20] = molecular target: GalNAc(b1-4)GlcNAc
Procedure, shortened: as §1

[21] = molecular target: GalNAc(b1-4)GlcNAc(b1-2)Man(a1-3)[GalNAc(b1-4)GlcNAc(b1-2)Man(a1-6)]Man(b1-4)GlcNAc(b1-4)GlcNAc
Procedure, shortened: as §1

[22] = molecular target: Glc(a1-4)Glc
Procedure, shortened: as §1

[23] = molecular target: Glc(a1-6)Glc(a1-6)Glc
Procedure, shortened: as §1

[24] = molecular target: Glc(b1-4)Glc
Procedure, shortened: as §1

[25] = molecular target: Glc(b1-6)Glc
Procedure, shortened: as §1

[26] = molecular target: GlcA(b1-3)Gal
Procedure, shortened: as §1

[27] = molecular target: GlcA(b1-3)GlcNAc
Procedure, shortened: as §1

[28] = molecular target: GlcA(b1-6)Gal
Procedure, shortened: as §1

[29] = molecular target: GlcNAc(a1-3)Gal(b1-4)GlcNAc
Procedure, shortened: as §1

[30] = molecular target: GlcNAc(a1-4)Gal(b1-3)GlcNAc
Procedure, shortened: as §1

[31] = molecular target: GlcNAc(a1-4)Gal(b1-4)GalNAc
Procedure, shortened: as §1

[32] = molecular target: GlcNAc(a1-4)Gal(b1-4)GlcNAc
Procedure, shortened: as §1

[33] = molecular target: GlcNAc(a1-4)Gal(b1-4)GlcNAc(b1-3)Gal(b1-4)Glc
Procedure, shortened: as §1

[34] = molecular target: GlcNAc(a1-4)Gal(b1-4)GlcNAc(b1-3)Gal(b1-4)GlcNAc
Procedure, shortened: as §1

[35] = molecular target: GlcNAc(a1-4)Gal(b1-4)GlcNAc(b1-3)Gal(b1-4)GlcNAc(b1-3)Gal(b1-4)GlcNAc
Procedure, shortened: as §1

[36] = molecular target: GlcNAc(a1-4)Gal(b1-4)GlcNAc(b1-3)Gal(b1-4)[Fuc(a1-3)]GlcNAc(b1-3)Gal(b1-4)[Fuc(a1-3)]GlcNAc
Procedure, shortened: as §1

[37] = molecular target: GlcNAc(a1-6)Gal(b1-4)GlcNAc
Procedure, shortened: as §1

[38] = molecular target: GlcNAc(b1-2)Gal(b1-3)GalNAc
Procedure, shortened: as §1

[39] = molecular target: GlcNAc(b1-2)Man(a1-3)[GlcNAc(b1-2)Man(a1-6)]Man(b1-4)GlcNAc(b1-4)GlcNAc
Procedure, shortened: as §1

[40] = molecular target: GlcNAc(b1-2)Man(a1-3)[GlcNAc(b1-2)Man(a1-6)]Man(b1-4)GlcNAc(b1-4)[Fuc(a1-6)]GlcNAc
Procedure, shortened: as §1

[41] = molecular target: GlcNAc(b1-2)[GlcNAc(b1-4)]Man(a1-3)[GlcNAc(b1-2)Man(a1-6)]Man(b1-4)GlcNAc(b1-4)GlcNAc
Procedure, shortened: as §1

[42] = molecular target: GlcNAc(b1-3)Gal
Procedure, shortened: as §1

[43] = molecular target: GlcNAc(b1-3)Gal(b1-3)GalNAc
Procedure, shortened: as §1

[44] = molecular target: GlcNAc(b1-3)Gal(b1-4)Glc
Procedure, shortened: as §1

[45] = molecular target: GlcNAc(b1-3)Gal(b1-4)GlcNAc
Procedure, shortened: as §1

B1: Gal 1 (Canis lupus) (protein)
chain: MACGLVASNLSLKPGQCLRVQCEVVPEAKSFVLNLGKDGDNLCLHFNPRFEAHGDVNTIVCNSKDGGAWGEELRESAFPFQPGTVTEVCISFDQADLTIKLPDGYTFKFPNRLNLEAISYLAADGDMKIKCLAFD
- glycan array binding signal (z-score) [1]: -0.308
- glycan array binding signal (z-score) [2]: -0.286
- glycan array binding signal (z-score) [3]: -0.179
- glycan array binding signal (z-score) [4]: -0.317
- glycan array binding signal (z-score) [5]: -0.319
- glycan array binding signal (z-score) [6]: -0.322
- glycan array binding signal (z-score) [7]: -0.3
- glycan array binding signal (z-score) [8]: -0.327
- glycan array binding signal (z-score) [9]: -0.312
- glycan array binding signal (z-score) [10]: -0.327
- glycan array binding signal (z-score) [11]: -0.256
- glycan array binding signal (z-score) [12]: -0.325
- glycan array binding signal (z-score) [13]: -0.323
- glycan array binding signal (z-score) [14]: -0.325
- glycan array binding signal (z-score) [15]: -0.334
- glycan array binding signal (z-score) [16]: -0.321
- glycan array binding signal (z-score) [17]: -0.311
- glycan array binding signal (z-score) [18]: -0.321
- glycan array binding signal (z-score) [19]: -0.341
- glycan array binding signal (z-score) [20]: -0.281
- glycan array binding signal (z-score) [21]: -0.313
- glycan array binding signal (z-score) [22]: -0.317
- glycan array binding signal (z-score) [23]: -0.327
- glycan array binding signal (z-score) [24]: -0.335
- glycan array binding signal (z-score) [25]: -0.343
- glycan array binding signal (z-score) [26]: -0.333
- glycan array binding signal (z-score) [27]: -0.294
- glycan array binding signal (z-score) [28]: -0.333
- glycan array binding signal (z-score) [29]: -0.327
- glycan array binding signal (z-score) [30]: -0.332
- glycan array binding signal (z-score) [31]: -0.305
- glycan array binding signal (z-score) [32]: -0.312
- glycan array binding signal (z-score) [33]: -0.318
- glycan array binding signal (z-score) [34]: -0.274
- glycan array binding signal (z-score) [35]: -0.234
- glycan array binding signal (z-score) [36]: -0.257
- glycan array binding signal (z-score) [37]: -0.308
- glycan array binding signal (z-score) [38]: -0.335
- glycan array binding signal (z-score) [39]: -0.34
- glycan array binding signal (z-score) [40]: -0.315
- glycan array binding signal (z-score) [41]: -0.317
- glycan array binding signal (z-score) [42]: -0.299
- glycan array binding signal (z-score) [43]: -0.317
- glycan array binding signal (z-score) [44]: -0.293
- glycan array binding signal (z-score) [45]: -0.3

— the supplement of paper PMC8728848
